Reference: PubChem BioAssay AID493208 (National Center for Advancing Translational Sciences (NCATS), 2011)
The campaign covered roughly 44,000 compounds. About 340 (0.77%) were called active. About 5% were inconclusive and are not listed. The call rests on the fitted dose curve; in most records, active means well fitted inhibition curve with a large enough effect; inconclusive means small, poorly fitted or top-dose-only effect; inactive means flat fitted curve, though single readings scatter. The list shows a part of the results.

Experiment: Acumen qHTS Assay for Inhibitors of the mTORC1 Signaling Pathway in MEF (Tsc2-/-, p53-/-) Cells: Sytravon;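 further: plate controls were DMSO for no effect and rapamycin for full effect; nearly all actives have a fitted effect of over 50% in size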
Conditions: phospho-rpS6 immunofluorescence/PI, 24 h; series mostly up to 38.3 µM; activity change, negative = inhibition: at the top concentration
Summary of the method: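 Readout is phospho-S6 Alexa 488 signal normalized to PI per well, reported as % active cells with thresholds set from rapamycin (7.5 nM) and DMSO controls. Cells: Tsc2-/-, p53-/- MEFs, 24 hrs compound at 37 C; PI cell number serves as viability.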

Activity change, negative = inhibition, inactive:
Cc1ccc2c(c1)N(C(=O)CCC(=O)Nc1ccccc1Cl)CC(C)O2 (stereo unspecified) 3.69%
O=c1cc(CSc2ncn[nH]2)[nH]c2c(Cl)cccc12 5.81%
O=C(CC1N=C2c3ccccc3N=C(SCc3ccc(Cl)cc3)N2C1=O)NCCc1ccccc1 (stereo unspecified) -0.524%
COc1ccc(OC)c(Nc2nc(-c3ccc(C)cc3)nc3ccccc23)c1 3.4%
CCOC(=O)c1c(C)[nH]c(C)c1S(=O)(=O)NCC(=O)Nc1cccc(C(F)(F)F)c1 -9.17%
O=C(CSc1nnc(NC(=O)NC2CCCCC2)s1)Nc1ccccc1F 0.584%
CCOc1ccc(C2c3c(-c4ccc(C)cc4)n[nH]c3C(=O)N2c2ccc(Cl)cc2)cc1 (stereo unspecified) -2.41%
CC1CCCN(C(=O)Cn2c(=O)oc3cc(S(=O)(=O)N4CCCCC4)ccc32)C1 (stereo unspecified) 0.518%
COc1ccc(-n2c(=O)c3sc4ccccc4c3n(CC(=O)Nc3cccc(C)c3)c2=O)cc1 -1.09%
Cc1ccc(-c2nnc(Nc3ccc(Br)cc3)c3ccccc23)cc1S(=O)(=O)N1CCOCC1 0.956%
COc1ccccc1NC(=O)c1cc(S(=O)(=O)N(C)C2CCCCC2)ccc1F 11.6%
Cc1ccc(NC(=O)C(Cc2ccccc2)NS(=O)(=O)c2ccc3c(c2)oc(=O)n3C)c(Cl)c1 (stereo unspecified) -0.457%
COCCNC(=O)Cn1cc(S(=O)(=O)Cc2ccccc2Cl)c2ccccc21 -1.78%
CCOC(=O)N1CCc2c(sc3c2c(=O)n(CCc2ccccc2)c(=O)n3Cc2cc(C)ccc2C)C1 6.19%
CC1=C(C(=O)Nc2ccccc2C)C(c2cccnc2)n2nc(SCc3ccccc3)nc2N1 (stereo unspecified) -0.321%
CCOc1ccccc1NC(=O)c1cn(C2CCCC2)c(=O)c2c1c1ccccc1n2C -5.97%
COc1ccccc1NC(=O)C1=C(C)Nc2nc(SCc3ccccc3)nn2C1c1ccccn1 (stereo unspecified) 0.472%
CCN(CC)S(=O)(=O)c1ccc2c(c1)N(CC(=O)NCCc1ccc(OC)c(OC)c1)C(=O)CO2 -2.62%
Cc1nnc(NC(=O)CSc2nccn2-c2cccc(Cl)c2)s1 -11.1%
CC1CCCN(S(=O)(=O)c2cc3c(cc2Cl)NC(=O)CO3)C1 (stereo unspecified) 3.76%
Cc1nc2c(c(C)c1CCC(=O)Nc1cccc(C(F)(F)F)c1)c(=O)n(C)c(=O)n2C -6.68%
O=C(CCC(=O)N1CC2CCCN2c2ccccc21)NCc1ccccc1Cl (stereo unspecified) -13.6%
COc1ccc(-c2cc(=O)n3[nH]cnc3n2)cc1 -0.333%
COc1ccc(C(=O)Nc2ccccc2C(=O)OCc2cc(=O)n3c4c(sc3n2)CCCC4)cc1 0%
COc1cc(OC)c(Nc2nc3ccc(C)cc3n3nnnc23)cc1Cl -3.34%
COc1ccccc1CNc1nc2nc(C)c(Cl)c(C)n2n1 -8.21%
Cc1cccc(-c2nc(SCC(=O)Nc3cc(C)on3)c3c(=O)n(C)c(=O)n(C)c3n2)c1 0.321%
COc1ccc(N2CCN(c3ccc(-c4nc(-c5ccccc5C)no4)cc3[N+](=O)[O-])CC2)cc1 0.306%
Cc1ccc(NC(=O)N2CCC(N3CCN(Cc4ccccc4)C(=O)C3=O)CC2)cc1Cl -11.7%
CCCCCn1c(=O)[nH]c2cc(C(=O)Nc3cc(OC)cc(OC)c3)ccc2c1=O 0.996%
Cc1cccc(CNC(=O)C2CCCN(S(=O)(=O)c3cn(C)cn3)C2)c1 (stereo unspecified) 0%
COc1ccccc1CNC(=O)CCn1c(=O)c2ccccc2n(CC(=O)Nc2ccc(C)cc2)c1=O -31.3%
Cn1nnnc1SCCCNCc1ccc(-c2ccc(Br)cc2)o1 -18.2%
Cc1ccc2oc(=O)c3cc(C(=O)N4CCN(c5ccccc5)CC4)sc3c2c1 -2.96%
COC(=O)c1cc2oc3ccccc3c2n1Cc1cccc(C)c1 -1.07%
CN(C)S(=O)(=O)c1ccc2c(c1)N(CC(=O)NCc1ccccc1)C(=O)C1CCCCN21 (stereo unspecified) 2.56%
Cc1ccccc1CCNC(=O)c1ccc2c(c1)c(C)c(C)n2C -5.23%
Cc1ccc(NC(=O)CSc2nc3ccccc3nc2Cc2ccccc2F)cc1F 0%
Cc1nn(S(=O)(=O)c2ccc(C(C)C)cc2)c(C)c1S(=O)(=O)N1CCCCCC1 -0.392%
COc1ccc(-c2nsc(NC(=O)COc3ccc(C)c(C)c3)n2)cc1 3.14%
CCc1ccccc1NC(=O)C1(S(=O)(=O)c2ccc(Cl)cc2)CC1 -0.714%
Cc1ccc(OCC(=O)Nc2ccc(Cl)c(-c3nc4ncccc4o3)c2)cc1C -11.7%
Cc1cc(C)cc(NC(=O)CN2C(=O)CSc3ccc(S(=O)(=O)N(C)C)cc32)c1 5.64%
CCOC(=O)c1c(C)oc2ncnc(Nc3ccc(F)cc3Cl)c12 3.59%
COc1ccc(-c2oc3ncn4nc(-c5cccc(C)c5)nc4c3c2-c2ccc(OC)cc2)cc1 -9.5%
COc1cc(C(=O)Nc2nnc(S(=O)(=O)N(C)c3ccccc3)s2)cc(OC)c1OC 3.76%
Cc1ccc(CN2C(=O)c3ccccc3Sc3ccc(C(=O)NC4CCCCC4)cc32)cc1 7.47%
COc1ccccc1CNC(=O)CS(=O)(=O)c1cccc2nsnc12 -0.48%
COc1cc(C(=O)NCC(c2ccc(N(C)C)cc2)N2CCc3ccccc32)cc(OC)c1OC (stereo unspecified) 23.9%
Cc1ccc(-c2nc3n(n2)C(c2ccccc2C)C=C(c2ccc(Cl)cc2)N3)cc1 (stereo unspecified) -20.8%
COc1ccc(CCNC(=O)c2cc(-c3ccc(C)cc3)nc3n[nH]c(-c4ccccc4)c23)cc1OC -0.723%
COc1ccc(OC)c(NC(=O)CCn2cnnn2)c1 0.393%
COc1ccc(CNC(=O)c2cc3c(=O)[nH]c4ccc(C)cc4c3s2)c(OC)c1 -1.2%
O=C(NC1CC(=O)N(c2ccc(F)cc2)C1)c1cccs1 (stereo unspecified) 2.55%
O=C(CSc1ncc(CO)n1Cc1ccccc1)Nc1nc2ccccc2s1 -13.7%
Cc1ccn2c(Nc3ccc(F)cc3)c(-c3ccc(C)o3)nc2c1 -0.522%
COc1ccc(CNC(=O)C2CCN(c3nc4ccccc4[nH]3)CC2)c(OC)c1 0%
COc1cc(CN(C(=O)COc2ccc(Br)cc2)c2ccccn2)cc(OC)c1OC -18.9%
COC(=O)c1cccc(NC(=O)C2CCN(S(=O)(=O)Cc3ccccc3)CC2)c1C -3.74%
CCCCOc1ccc(OC(=O)c2sc3ncn(Cc4cccc(F)c4)c(=O)c3c2C)cc1 -4.66%
COc1cc2nc(SCc3ccc(Cl)cc3)n3nc(CCn4nc(C)cc4C)nc3c2cc1OC -4.28%
